# The other results are listed elsewhere or left out.
# Assays:
# Assay in all cases: glycan array binding signal (z-score within array); higher = stronger binding
# Settings in all cases: glycan notation: IUPAC condensed, linker removed
# [1] = biological target: Gal(b1-4)GlcNAc(b1-3)Gal(b1-4)GlcNAc(b1-6)[Gal(b1-3)]GalNAc
# Outline: (§1)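 The Consortium for Functional Glycomics database supplied 3228 glycan arrays, of which those lacking an available protein sequence were dropped. The binding signal, a within-array Z-score, was averaged across arrays of the same protein sequence and across linkers. Negative scores can be read as non-binding.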
# [2] = biological target: Gal(b1-4)GlcNAc(b1-3)Gal(b1-4)[Fuc(a1-3)]GlcNAc(b1-3)Gal(b1-4)[Fuc(a1-3)]GlcNAc
# Outline: as §1
# [3] = biological target: Gal(b1-4)GlcNAc(b1-3)GalNAc
# Outline: as §1
# [4] = biological target: Gal(b1-4)GlcNAc(b1-3)[Fuc(a1-3)GlcNAc(b1-6)]Gal(b1-4)Glc
# Outline: as §1
# [5] = biological target: Gal(b1-4)GlcNAc(b1-3)[Gal(b1-4)GlcNAc(b1-6)]Gal(b1-4)GlcNAc
# Outline: as §1
# [6] = biological target: Gal(b1-4)GlcNAc(b1-3)[GlcNAc(b1-6)]Gal(b1-4)GlcNAc
# Outline: as §1
# [7] = biological target: Gal(b1-4)GlcNAc(b1-6)Gal(b1-4)GlcNAc
# Outline: as §1
# [8] = biological target: Gal(b1-4)GlcNAc(b1-6)GalNAc
# Outline: as §1
# [9] = biological target: Gal(b1-4)GlcNAc(b1-6)[Gal(b1-3)]GalNAc
# Outline: as §1
# [10] = biological target: Gal(b1-4)GlcNAc(b1-6)[Gal(b1-4)GlcNAc(b1-3)]GalNAc
# Outline: as §1
# [11] = biological target: Gal(b1-4)GlcNAc6P
# Outline: as §1
# [12] = biological target: Gal(b1-6)Gal
# Outline: as §1
# [13] = biological target: Gal3S(b1-3)GalNAc
# Outline: as §1
# [14] = biological target: Gal3S(b1-3)GlcNAc
# Outline: as §1
# [15] = biological target: Gal3S(b1-3)[Fuc(a1-4)]GlcNAc
# Outline: as §1
# [16] = biological target: Gal3S(b1-4)Glc
# Outline: as §1
# [17] = biological target: Gal3S(b1-4)Glc6S
# Outline: as §1
# [18] = biological target: Gal3S(b1-4)GlcNAc
# Outline: as §1
# [19] = biological target: Gal3S(b1-4)[Fuc(a1-3)]Glc6S
# Outline: as §1
# [20] = biological target: Gal3S(b1-4)[Fuc(a1-3)]GlcNAc
# Outline: as §1
# [21] = biological target: Gal3S(b1-4)[Fuc(a1-3)]GlcNAc6S
# Outline: as §1
# [22] = biological target: Gal3S4S(b1-4)GlcNAc
# Outline: as §1
# [23] = biological target: Gal3S6S(b1-4)GlcNAc
# Outline: as §1
# [24] = biological target: Gal3S6S(b1-4)GlcNAc6S
# Outline: as §1
# [25] = biological target: Gal4S(b1-4)GlcNAc
# Outline: as §1
# [26] = biological target: Gal4S6S(b1-4)GlcNAc
# Outline: as §1
# [27] = biological target: Gal6P(b1-4)GlcNAc
# Outline: as §1
# [28] = biological target: Gal6S(b1-3)GlcNAc
# Outline: as §1
# [29] = biological target: Gal6S(b1-3)GlcNAc6S
# Outline: as §1
# [30] = biological target: Gal6S(b1-4)Glc
# Outline: as §1
# [31] = biological target: Gal6S(b1-4)Glc6S
# Outline: as §1
# [32] = biological target: Gal6S(b1-4)GlcNAc
# Outline: as §1
# [33] = biological target: Gal6S(b1-4)GlcNAc6S
# Outline: as §1
# [34] = biological target: GalNAc(a1-3)Gal
# Outline: as §1
# [35] = biological target: GalNAc(a1-3)GalNAc
# Outline: as §1
# [36] = biological target: GalNAc(a1-3)GalNAc(b1-3)Gal(a1-4)Gal(b1-4)Glc
# Outline: as §1
# [37] = biological target: GalNAc(a1-3)GalNAc(b1-3)Gal(a1-4)Gal(b1-4)GlcNAc
# Outline: as §1
# [38] = biological target: GalNAc(b1-3)Gal
# Outline: as §1
# [39] = biological target: GalNAc(b1-3)Gal(a1-4)Gal(b1-4)GlcNAc
# Outline: as §1
# [40] = biological target: GalNAc(b1-3)Gal(a1-4)Gal(b1-4)GlcNAc(b1-3)Gal(b1-4)Glc
# Outline: as §1
# [41] = biological target: GalNAc(b1-3)Gal(a1-6)Gal(b1-4)Glc
# Outline: as §1
# [42] = biological target: GalNAc(b1-3)GalNAc
# Outline: as §1
# [43] = biological target: GalNAc(b1-3)GlcNAc
# Outline: as §1
# [44] = biological target: GalNAc(b1-4)Gal(b1-4)Glc
# Outline: as §1
# [45] = biological target: GalNAc(b1-4)GlcNAc
# Outline: as §1
binder,measurement,setting,value
Epa13 (Candida glabrata) (protein) MGSSHHHHHHSSGLVPRGSHMASDSSENGYAHGCSPSIRAKLKPGLSMEIYSYALRPTDDHCWDSAYLDPMFPRTGYLTHKLLGKAEGIIGPLNFLAKNPACIPAVSTLPLAFHFPKPFTITNFTMLLYGYLSPKKTGKYTFKLLADDLLLMNFGADNAFDCCSHDATKDNIGEYVAYSVWPGVNKNVTVYLESGIYYPLRLFFNNRDAIAQLDFAYYFNDSPIRQTDFSGMFFSIPDSVKCPANI,glycan array binding signal (z-score),[1],0.298
same,glycan array binding signal (z-score),[2],-0.02
same,glycan array binding signal (z-score),[3],-0.314
same,glycan array binding signal (z-score),[4],-0.181
same,glycan array binding signal (z-score),[5],0.057
same,glycan array binding signal (z-score),[6],-0.143
same,glycan array binding signal (z-score),[7],-0.277
same,glycan array binding signal (z-score),[8],-0.162
same,glycan array binding signal (z-score),[9],0.002
same,glycan array binding signal (z-score),[10],0.086
same,glycan array binding signal (z-score),[11],0.565
same,glycan array binding signal (z-score),[12],1.22
same,glycan array binding signal (z-score),[13],-0.286
same,glycan array binding signal (z-score),[14],-0.35
same,glycan array binding signal (z-score),[15],0.4
same,glycan array binding signal (z-score),[16],-0.425
same,glycan array binding signal (z-score),[17],-0.348
same,glycan array binding signal (z-score),[18],-0.428
same,glycan array binding signal (z-score),[19],0.482
same,glycan array binding signal (z-score),[20],-0.06
same,glycan array binding signal (z-score),[21],0.237
same,glycan array binding signal (z-score),[22],-0.365
same,glycan array binding signal (z-score),[23],-0.104
same,glycan array binding signal (z-score),[24],1.36
same,glycan array binding signal (z-score),[25],-0.105
same,glycan array binding signal (z-score),[26],-0.32
same,glycan array binding signal (z-score),[27],-0.368
same,glycan array binding signal (z-score),[28],-0.149
same,glycan array binding signal (z-score),[29],0.743
same,glycan array binding signal (z-score),[30],-0.014
same,glycan array binding signal (z-score),[31],1.4
same,glycan array binding signal (z-score),[32],0.111
same,glycan array binding signal (z-score),[33],2.69
same,glycan array binding signal (z-score),[34],-0.394
same,glycan array binding signal (z-score),[35],-0.305
same,glycan array binding signal (z-score),[36],-0.274
same,glycan array binding signal (z-score),[37],-0.323
same,glycan array binding signal (z-score),[38],-0.261
same,glycan array binding signal (z-score),[39],-0.05
same,glycan array binding signal (z-score),[40],-0.135
same,glycan array binding signal (z-score),[41],0.011
same,glycan array binding signal (z-score),[42],0.087
same,glycan array binding signal (z-score),[43],-0.366
same,glycan array binding signal (z-score),[44],0.098
same,glycan array binding signal (z-score),[45],-0.206

# — the supplement of paper PMC8728848
